Patent US20250214977A1, “STAT6 INHIBITORS AND USES THEREOF” (Kymera Therapeutics, Inc., priority 2024, published 2025)
pIC50: −log10 of the molar value.

target: T1, biotinylated truncated STAT6 (123-632)-avi (Homo sapiens, UniProt P42226); test: Homogenous Time-Resolved Fluorescence (HTRF) binding assay; settings: 0.15 nM biotinylated truncated STAT6 (123-632)-avi, 20 nM fluorescein-labeled probe, 30 minutes at room temperature
T1 sequence (P42226 123-632 limits assumed): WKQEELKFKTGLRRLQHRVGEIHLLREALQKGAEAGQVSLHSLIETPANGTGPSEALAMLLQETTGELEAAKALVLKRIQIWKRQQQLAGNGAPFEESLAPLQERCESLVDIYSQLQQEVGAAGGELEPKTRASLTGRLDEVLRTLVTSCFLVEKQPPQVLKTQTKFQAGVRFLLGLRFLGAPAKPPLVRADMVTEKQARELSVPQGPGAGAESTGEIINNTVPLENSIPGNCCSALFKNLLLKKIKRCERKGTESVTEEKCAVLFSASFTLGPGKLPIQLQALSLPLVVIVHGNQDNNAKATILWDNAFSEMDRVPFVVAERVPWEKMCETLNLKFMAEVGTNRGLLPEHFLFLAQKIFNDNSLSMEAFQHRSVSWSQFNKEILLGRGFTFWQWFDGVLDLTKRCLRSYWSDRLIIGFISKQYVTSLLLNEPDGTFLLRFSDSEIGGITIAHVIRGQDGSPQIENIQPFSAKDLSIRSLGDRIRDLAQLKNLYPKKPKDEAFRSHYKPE

Q: How did the pIC50 turn out when “2-(3-(1-(cyclopropylmethyl)-7-(2-ethyl-6-methylpyridin-3-yl)-5-(4-(5-fluoro-3-methoxypyridin-2-yl)piperazine-1-carbonyl)-1H-indol-2-yl)-5,6-dihydropyridin-1(2H)-yl)-2-oxoacetic acid [Example I-1228]” was run?
A: > 7.00

Q: How did the pIC50 turn out when “5-(1-(2-formyl-1,2,3,4-tetrahydroisoquinoline-3-carbonyl)-1,2,5,6-tetrahydropyridin-3-yl)-7-(2-methoxyphenyl)-N,N-dimethylbenzofuran-2-carboxamide [Example I-803]” was run?
A: > 7.00

Q: With COC(=O)C1CCC(c2ccc3oc(C(=O)N(C)C)cc3c2)CN1C(=O)CCn1ccnn1 (mixture of isomers) [Example I-1] as the compound, how does the pIC50 read?
A: < 4.00

Q: With COC(=O)C1CCC(c2ccc3oc(C(=O)N(C)C)cc3c2)CN1C(=O)CCn1ccnn1 (mixture of isomers) [Example I-2] as the compound, how does the pIC50 read?
A: < 4.00

Q: How did the pIC50 turn out when CCC1CN(C(=O)c2cc3c(-c4ccccc4OC)cc(C4=CCCN(C(=O)CCn5ccnn5)C4)c(F)c3[nH]2)CC=C1c1ccccn1 (racemic) [Example I-1042] was run?
A: 4.00 to 5.00

Q: How did the pIC50 turn out when COc1ccc(C)cc1-c1cc(C2=CCCN(C(=O)C3Cc4ccccc4CN3C=O)C2)cc2cc(C(=O)N(C)C)oc12 (racemic) [Example I-1196] was run?
A: > 7.00

Q: With C[C@H]1CCCCN1C(=O)c1cc2ccc(C3=CCCN(C(=O)CCn4ccnn4)C3)cc2[nH]1 (single isomer, unassigned) [Example I-129] as the compound, how does the pIC50 read?
A: 4.00 to 5.00

Q: C[C@@H]1CCCCN1C(=O)c1cc2ccc(C3=CCCN(C(=O)CCn4ccnn4)C3)cc2[nH]1 (single isomer, unassigned) [Example I-130] was tested. Which pIC50 did it give?
A: 4.00 to 5.00

Q: How did the pIC50 turn out when COC(=O)[C@H]1CC[C@@H](c2ccc3oc(C(=O)N(C)C)cc3c2)CN1C(=O)CCn1ccnn1 (single isomer, unassigned) [Example I-151] was run?
A: 4.00 to 5.00

Q: COC(=O)[C@H]1CC[C@H](c2ccc3oc(C(=O)N(C)C)cc3c2)CN1C(=O)CCn1ccnn1 (single isomer, unassigned) [Example I-152] was tested. Which pIC50 did it give?
A: 5.00 to 6.00

Q: How did the pIC50 turn out when CN(C)C(=O)c1cc2cc([C@@H]3CC[C@H](CO)N(C(=O)CCn4ccnn4)C3)ccc2o1 (single isomer, unassigned) [Example I-156] was run?
A: 4.00 to 5.00

Q: How did the pIC50 turn out when CN(C)C(=O)c1cc2cc(C3=CCCN(C(=O)[C@H](N)Cn4ccnn4)C3)ccc2o1 (single isomer, unassigned) [Example I-174] was run?
A: 4.00 to 5.00

Q: How did the pIC50 turn out when CC(=O)N1CCc2ccccc2[C@H]1C(=O)N1CCC=C(c2ccc3oc(C(=O)N(C)C)cc3c2)C1 (single isomer, unassigned) [Example I-176] was run?
A: 4.00 to 5.00

Q: CN(C)C(=O)c1cc2cc([C@@H]3CN(C(=O)CCn4ccnn4)CC[C@H]3O)ccc2o1 (single isomer, unassigned) [Example I-209] was tested. Which pIC50 did it give?
A: 4.00 to 5.00

Q: How did the pIC50 turn out when CN(C)C(=O)c1cc2cc([C@H]3CN(C(=O)CCn4ccnn4)CC[C@@H]3O)ccc2o1 (single isomer, unassigned) [Example I-210] was run?
A: 4.00 to 5.00

Q: C[C@@H](Cn1ccnn1)C(=O)N1CCC=C(c2ccc3oc(C(=O)N(C)C)cc3c2)C1 (single isomer, unassigned) [Example I-229] was tested. Which pIC50 did it give?
A: 4.00 to 5.00

Q: CN(C)C(=O)c1cc2c(F)c(C3=CCCN(C(=O)[C@@H]4Cc5ccccc5CN4C=O)C3)ccc2o1 (single isomer, unassigned) [Example I-375] was tested. Which pIC50 did it give?
A: > 7.00

Q: With CN(C)C(=O)c1cc2c(F)c(C3=CCCN(C(=O)[C@H]4Cc5ccccc5CN4C=O)C3)ccc2o1 (single isomer, unassigned) [Example I-376] as the compound, how does the pIC50 read?
A: 5.00 to 6.00

Q: COc1ccccc1-c1cc(C2=CCCN(C(=O)[C@H]3Cc4ccccc4CN3C=O)C2)cc2cc(C(=O)N(C)C)oc12 (single isomer, unassigned) [Example I-804] was tested. Which pIC50 did it give?
A: 6.00 to 7.00

Q: How did the pIC50 turn out when COc1ccccc1-c1cc(C2=CCCN(C(=O)[C@@H]3Cc4ccccc4CN3C=O)C2)cc2cc(C(=O)N(C)C)oc12 (single isomer, unassigned) [Example I-805] was run?
A: 4.00 to 5.00

Q: With CCc1ccncc1-c1cc(C2=CCC[C@H](C(=O)O)C2)c(F)c2[nH]c(C(=O)N3CCN(c4ncc(F)cc4OC)CC3)cc12 (single isomer, unassigned) [Example I-809] as the compound, how does the pIC50 read?
A: < 4.00
